Assay results reported in the supplement of paper PMC5919970.
Counter-ions that a name gives are not always drawn. The full ranking holds about 2,000 compounds; the median of “fractional viability relative to vehicle” is about 0.91, and the lowest 2% start at about 0.045. The list shows a part of the results.

Tested on: TYKNU
Assay: fractional viability relative to vehicle; TYKNU is a high-grade serous ovarian cancer line; higher = less growth inhibition
Conditions: 72 h
Procedure, shortened: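 TYKNU control cells or lentiCRISPRv2 knockout derivatives were plated at 500 cells per well in duplicate into drug-stamped 384-well plates holding a ~2100-compound library at 2 or 10 μM. Culture was in RPMI 1640 with 10% FBS at 37 °C in 5% CO2, with 72 h of drug treatment. Viability was measured by Cell Titer Glo luminescence, and the averaged duplicate treatment wells were normalised to duplicate control wells at the same plate position.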

[1] = 2uM, genotype: DNM1L knockout (sgDNM1L #1)
[2] = 2uM, genotype: sgCTRLA1 (non-targeting control)
[3] = 10uM, genotype: DNM1L knockout (sgDNM1L #1)
[4] = 10uM, genotype: sgCTRLA1 (non-targeting control)

Row | SMILES | fractional viability [1] | fractional viability [2] | fractional viability [3] | fractional viability [4]
1 | O=C(O)c1ccc(Nc2ncc3c(n2)-c2ccc(Cl)cc2C(c2c(F)cccc2F)=NC3)cc1 | 0.651 | 0.938 | 0.398 | 0.623
2 | C[C@H](NC(=O)Cc1cc(F)cc(F)c1)C(=O)N[C@@H]1C(=O)N(C)c2ccccc2-c2ccccc21 | 1.03 | 1.01 | 0.767 | 1.04
3 | Cc1cc(N2CCOCC2)ccc1Nc1nc(NC2CCCCC2)c2[nH]cnc2n1 | 0.443 | 0.469 | 0.462 | 0.382
4 | O=c1c(-c2ccc(O)cc2)coc2cc(O)cc(O)c12 [Genistein] | 0.966 | 1.08 | 0.621 | 1
5 | OCc1ccc(-c2ccc(-c3ccc(CO)s3)o2)s1 | 0.429 | 0.66 | 0.141 | 0.248
6 | CSc1cccc(Nc2ncc3cc(-c4c(Cl)cccc4Cl)c(=O)n(C)c3n2)c1 | 0.603 | 1.09 | 0.198 | 0.486
7 | CNC(=C[N+](=O)[O-])NCCSCc1ccc(CN(C)C)o1 [Ranitidine] | 0.91 | 1.04 | 0.719 | 0.999
8 | C=CCc1ccc(O)c(-c2ccc(O)c(CC=C)c2)c1 [Honokiol] | 1.13 | 1.1 | 0.797 | 0.958
9 | COC(=O)[C@H]1[C@H]2C[C@@H]3c4[nH]c5cc(OC)ccc5c4CCN3C[C@H]2C[C@@H](OC(=O)c2cc(OC)c(OC)c(OC)c2)[C@@H]1OC [Reserpine] | 0.965 | 1.1 | 0.127 | 0.485
10 | COc1cc2c(cc1OC)-c1cc3ccc(OC)c(OC)c3c[n+]1CC2 [Palmatine chloride] | 0.974 | 1.03 | 0.801 | 0.948
11 | Cc1nc(C)c(Cl)c(O)c1Cl [Clopidol] | 0.814 | 1.16 | 0.873 | 1.08
12 | CCN(CC)CCCC(C)Nc1c2ccc(Cl)cc2nc2ccc(OC)cc12 (centres undefined) [Quinacrine 2HCl] | 0.491 | 0.536 | 0.0312 | 0.0211
13 | CC(C)(C)NS(=O)(=O)c1cncc(-c2cc(F)c3nc(N)nn3c2)c1 | 0.916 | 1.04 | 1.06 | 1.03
14 | O=C(O)P(=O)(O)O [Foscarnet Sodium] | 1 | 1.11 | 0.854 | 1.05
15 | C1=N/C2=N/c3ccc(OCCN4CCCC4)c(c3)COC/C=C/COCc3cccc(c3)C(=C1)N2 [Pacritinib (SB1518)] | 0.128 | 0.169 | 0.0312 | 0.029
16 | COc1cc(C=O)ccc1O [Vanillin] | 1.03 | 1.03 | 0.803 | 1.13
17 | CNc1ncc2cc(-c3cc(NC(=O)NCCC(C)(C)C)c(F)cc3C)c(C)nc2n1 | 0.793 | 0.953 | 0.838 | 0.809
18 | C#C[C@]1(O)CC[C@H]2[C@@H]3CCc4cc(OC)ccc4[C@H]3CC[C@@]21C [Mestranol] | 0.904 | 1.02 | 0.646 | 0.935
19 | CC(C)NCC(O)c1ccc(NS(C)(=O)=O)cc1 (centres undefined) [Sotalol] | 0.843 | 1.14 | 0.834 | 1.01

Row | SMILES | fractional viability [1] | fractional viability [2] | fractional viability [3] | fractional viability [4]
20 | CN(C)C(=O)c1ccc(S(=O)(=O)c2ccc(NC(=O)[C@@](C)(O)C(F)(F)F)c(Cl)c2)cc1 | 0.831 | 0.889 | 0.602 | 0.609
21 | CN(CCOc1ccc(NS(C)(=O)=O)cc1)CCc1ccc(NS(C)(=O)=O)cc1 [Dofetilide] | 0.999 | 0.981 | 0.838 | 0.933
22 | CC(=O)N1CCN(c2ccc(OCC3COC(Cn4ccnc4)(c4ccc(Cl)cc4Cl)O3)cc2)CC1 (centres undefined) [Ketoconazole] | 0.908 | 1.04 | 0.782 | 0.88
23 | Cc1[nH]c(/C=C2\C(=O)Nc3ccccc32)c(C)c1CCC(=O)O [TSU-68 (SU6668, Orantinib)] | 0.962 | 1.11 | 0.869 | 1.02
24 | N[C@@H]1CCCN(c2c(/C=C3\SC(=O)NC3=O)cccc2-c2ccccc2)C1 | 0.726 | 1.16 | 0.702 | 1.05
25 | CO[C@H]1C[C@@H]2CC[C@@H](C)[C@@](O)(O2)C(=O)C(=O)N2CCCC[C@H]2C(=O)O[C@H]([C@H](C)C[C@@H]2CC[C@@H](O)[C@H](OC)C2)CC(=O)[C@H](C)/C=C(\C)[C@@H](O)[C@@H](OC)C(=O)[C@H](C)C[C@H](C)/C=C/C=C/C=C/1C [Rapamycin (Sirolimus)] | 0.64 | 0.721 | 0.607 | 0.68
26 | COc1cc2ncnc(Nc3ccc(Cl)cc3F)c2cc1OC | 1.43 | 1.19 | 1.1 | 1.17
27 | N#Cc1ccc2[nH]c(O)c(-c3ccc(CN4CCOCC4)cn3)c2c1 | 0.808 | 1.12 | 0.479 | 0.838
28 | Oc1ccc(Nc2nc(-c3ccc(Cl)cc3)cs2)cc1 | 0.857 | 1.03 | 0.558 | 0.712
29 | c1ccc2c(Oc3nc(Nc4ccc(N5CCOCC5)cc4)c4ncn(C5CCCCC5)c4n3)cccc2c1 [Purmorphamine] | 0.802 | 1.16 | 0.725 | 0.986
30 | C[C@]12C=CC(=O)C=C1CC[C@@H]1[C@@H]2C(=O)C[C@@]2(C)[C@H]1CC[C@]2(O)C(=O)CO [Prednisone] | 1.11 | 1.16 | 0.95 | 1.18
31 | CCOC(=O)CCC(=O)O[C@H]1[C@H](O[C@@H]2[C@@H](C)[C@H](O[C@H]3C[C@@](C)(OC)[C@@H](O)[C@H](C)O3)[C@@H](C)C(=O)O[C@H](CC)[C@@](C)(O)[C@H](O)[C@@H](C)C(=O)[C@H](C)C[C@@]2(C)O)O[C@H](C)C[C@@H]1N(C)C [Erythromycin Ethylsuccinate] | 1.16 | 1.13 | 0.919 | 1.09
32 | COc1cc(NC(=O)c2ccc(-c3ccc(Cl)cc3)o2)cc(OC)c1 | 1.06 | 1.09 | 1.09 | 1.04
33 | CS(=O)(=O)Nc1ccc([N+](=O)[O-])cc1Oc1ccccc1 [Nimesulide] | 0.973 | 1.1 | 0.922 | 1.01
34 | C=CC(=O)Nc1cccc(Nc2nc(Nc3ccc(NC4CN(CCF)C4)cc3OC)ncc2C(F)(F)F)c1 | 0.67 | 0.752 | 0.164 | 0.154
35 | CC(C)CN(C[C@@H](O)[C@H](Cc1ccccc1)NC(=O)O[C@H]1CCOC1)S(=O)(=O)c1ccc(N)cc1 [Amprenavir] | 0.815 | 1.06 | 0.789 | 0.981
36 | CCC1=C[C@@H]2CN(C1)Cc1c([nH]c3ccccc13)[C@@](C(=O)OC)(c1cc3c(cc1OC)N(C)[C@H]1[C@@](O)(C(=O)OC)[C@H](OC(C)=O)[C@]4(CC)C=CCN5CC[C@]31[C@@H]54)C2 [Vinorelbine Tartrate] | 0.136 | 0.134 | 0.132 | 0.119
37 | CNC(=C[N+](=O)[O-])NCCSCc1csc(CN(C)C)n1 [Nizatidine] | 0.911 | 0.967 | 0.878 | 0.991
38 | CCNC(=O)c1noc(-c2cc(Cl)c(O)cc2O)c1-c1ccc(OC)cc1 | 0.214 | 0.177 | 0.296 | 0.134

Row | SMILES | fractional viability [1] | fractional viability [2] | fractional viability [3] | fractional viability [4]
39 | CCn1cc(C(=O)O)c(=O)c2cc(F)c(N3CCN(C)CC3)cc21 [Pefloxacin Mesylate] | 1.08 | 0.968 | 1.01 | 0.888
40 | CCn1cc(C(=O)O)c(=O)c2cc(F)c(N3CCN(C)CC3)cc21 [Pefloxacin Mesylate Dihydrate] | 1.13 | 1.17 | 1.01 | 1
41 | CCOC(=O)c1ccc(N2NC(=O)C(=Cc3ccc([N+](=O)[O-])o3)C2=O)cc1 | 0.944 | 1.26 | 0.872 | 1.02
42 | C[C@@H]1CN(c2c(F)c(N)c3c(=O)c(C(=O)O)cn(C4CC4)c3c2F)C[C@H](C)N1 [Sparfloxacin] | 0.91 | 1.19 | 0.979 | 1.14
43 | Cc1cc(NC(=O)c2cccc(NC(=O)/C=C/CN(C)C)c2)ccc1Nc1nccc(-c2cccnc2)n1 | 0.771 | 1.03 | 0.22 | 0.265
44 | Cc1cccc(Nc2cc(Cl)nc(SCC(=O)O)n2)c1C | 0.786 | 0.929 | 0.767 | 0.719
45 | O=C(N/N=C/c1ccc([N+](=O)[O-])o1)c1ccc(O)cc1 [Nifuroxazide] | 0.378 | 1.1 | 0.0463 | 0.0163
46 | Cc1cn([C@@H]2C[C@@H](O)[C@H](CO)O2)c(=O)[nH]c1=O [Telbivudine] | 1.07 | 1.12 | 0.888 | 1
47 | CCc1cc(C(N)=S)ccn1 [Ethionamide] | 1.08 | 1.17 | 0.926 | 1.03
48 | Cn1cc(C2=C(c3ccc(Cl)cc3Cl)C(=O)NC2=O)c2ccccc21 | 1.22 | 1.05 | 0.706 | 0.931
49 | OCc1ccc(O[C@@H]2O[C@H](CO)[C@@H](O)[C@H](O)[C@H]2O)cc1 [Gastrodin] | 0.926 | 1.16 | 0.853 | 1.06
50 | O=C(NC(NC(=S)Nc1ccc(F)c([N+](=O)[O-])c1)C(Cl)(Cl)Cl)C(c1ccccc1)c1ccccc1 (centres undefined) | 1.03 | 1.04 | 0.136 | 0.0877
51 | COC(=O)c1ccc2c(c1)[nH]c1ncnc(NCCCN3CCCCC3)c12 | 0.884 | 1.05 | 0.929 | 0.811
52 | C[C@H]1[C@H](NC(=O)/C(=N\OC(C)(C)C(=O)O)c2csc(N)n2)C(=O)N1S(=O)(=O)O [Aztreonam] | 0.616 | 0.642 | 0.219 | 0.278
53 | OC[C@H]1O[C@@H](OCCc2ccc(O)cc2)[C@H](O)[C@@H](O)[C@@H]1O [Salidroside] | 0.968 | 1.14 | 0.842 | 1.07
54 | CCc1c2c(nc3ccc(OC(=O)N4CCC(N5CCCCC5)CC4)cc13)-c1cc3c(c(=O)n1C2)COC(=O)[C@]3(O)CC [Irinotecan] | 0.562 | 0.776 | 0.291 | 0.314
55 | CCc1c2c(nc3ccc(OC(=O)N4CCC(N5CCCCC5)CC4)cc13)-c1cc3c(c(=O)n1C2)COC(=O)[C@]3(O)CC [Irinotecan HCl Trihydrate] | 0.69 | 0.913 | 0.223 | 0.376
56 | C=C1/C(=C\C=C2/CCC[C@]3(C)[C@@H]([C@H](C)CCCC(C)(C)O)CC[C@@H]23)C[C@@H](O)C[C@@H]1O [Calcitriol] | 0.841 | 1.04 | 0.66 | 0.934
